According to ChEMBL document CHEMBL1156829:
Whole data set: some 5,400 compounds, median “IFI” near 2, cut for the highest 2% near 22. Some of the results follow.

Assay: NOVARTIS: Inhibition Frequency Index (IFI) - the number of HTS assays where a compound showed > 50% inhibition/induction, expressed as a percentage of the number of assays in which the compound was tested.
Format: functional
Work on `CCCCCCn1c2c(c(=N)c3c1CCC3)CCCC2` yielded an IFI of 14.3%. In the case of `CCN(CC)Cc1ccc2c(NC(=O)c3ccc(C)s3)c(C(=O)OC)sc2n1`, the IFI is reported as 0.862%. `COc1c(N2CCN(Cc3c(C)cc(C)cc3C)CC2)c2nc3oc2c2c(OC(=O)C(C)(C)C)c(C)c4c(c12)[C@@H](O)[C@@](C)(OC=C[C@H](OC)[C@@H](C)[C@@H](OC(C)=O)C(C)[C@H](O)[C@H](C)[C@@H](O)C(C)C=CC=C3C)O4` (stereo not given in full) showed an IFI of 2.13%. `COc1cc(C(=O)N2C(C(=O)Nc3ccccc3F)CSC2c2ccc(C(C)(C)C)cc2)cc(OC)c1OC` (stereo not given) gave an IFI of 1.05%. For `O=C(O)c1cccc(NC(=O)c2ccc(N3C(=O)c4ccc(C(=O)Nc5cccc(C(=O)O)c5)cc4C3=O)cc2)c1`, the IFI was 0%. Compound `CCOC(=O)c1c(CC)nc(-c2ccccc2)nc1C(=O)N1CCC(C)CC1` has an IFI of 2.25%. In the case of `COc1ccc(Nc2nc(NN=Cc3cccc(Cl)c3)nc(Nc3ccc([N+](=O)[O-])cc3)n2)cc1`, the IFI is reported as 3.95%. For `CCCCCN(C(=O)COc1ccc(Cl)cc1)C(CC)c1nc2ccccc2c(=O)n1-c1cccc(Cl)c1` (stereo not given), the IFI was 2.86%. Work on `CCC(c1nc2ccccc2c(=O)n1-c1cccc(Cl)c1)N(CCC(C)C)C(=O)COCc1ccccc1` (stereo not given) yielded an IFI of 0.909%. With `CCOc1ccc(CN2CCN(CC(O)COc3ccc(OCC(O)CN4CCN(Cc5ccc(OCC)cc5)CC4)cc3)CC2)cc1` (stereo not given) the IFI was 7.14%. `CCc1ccc(CSc2nc3cc(OC)c(OC)cc3c(=N)n2CCc2ccccc2)cc1` showed an IFI of 2.6%. Compound `O=[N+]([O-])c1ccc(-c2nc3ccccc3n2-c2cc(-c3ccccc3)nn2-c2ccccc2)cc1` has an IFI of 0%. For `C[n+]1ccccc1/C=C/c1ccc(Br)cc1`, the IFI was 4.25%. `Clc1ccc(NCn2nnc3ccccc32)nc1` gave an IFI of 1.59%. With `CCOC(=O)c1cnc2c(OC)cccc2c1Nc1cccc(C(F)(F)F)c1` the IFI was 0%. Compound `NC(=NOC(=O)c1ccccc1I)c1ccccn1` has an IFI of 0%. In the case of `COc1ccc(OC)c(NC(=O)COc2cc3ccccc3cc2C(=O)Nc2cc(OC)c(Cl)cc2OC)c1`, the IFI is reported as 0%. With `Cc1c2c(cc3c1ccc1ccccc13)C[N+]1(CCCCC1)C2` the IFI was 1.51%. For `Cc1ccc2nc(Cl)c3cc(C(=O)Nc4ccc(CN5CCC(C)CC5)cc4)sc3c2c1`, the IFI was 8.11%. Work on `Cc1ccc(S(=O)(=O)N=C(NS(=O)(=O)c2ccc(C)cc2)c2ccccc2)cc1` yielded an IFI of 0%. `CC(C)(C)c1ccc2[nH]c3c(c2c1)CCCC3=NO` gave an IFI of 3.17%. With `Cc1cc(NCCCN(C)C)c2ccccc2n1` the IFI was 7.69%. In the case of `Cc1cc(Nc2cc(Cl)cc(Cl)c2)n2nc(C)nc2n1`, the IFI is reported as 0%. In the case of `COc1cccc(-c2nc3c(OC)ccc(OC)c3cc2CNCC(C)(C)CN(C)C)c1`, the IFI is reported as 2.61%. For `Cc1nc(C23CC4CC(CC(C4)C2)C3)cs1`, the IFI was 2.02%. `C=CCNC(=O)c1ccc2c(c1)N=C(CC(C)c1ccccc1)N(CC1CCCCC1)C2` (stereo not given) showed an IFI of 2.5%. With `CN1/C(=C/c2cccc[n+]2C)C=Cc2ccccc21` the IFI was 8.33%. With `c1ccc2cc3c(Nc4ccc(N5CCCCC5)cc4)ccnc3cc2c1` the IFI was 7.14%. `CC(C)N(CC(=O)Nc1cc(C(C)(C)C)nn1-c1ccc(Cl)c(Cl)c1)C(=O)c1ccc(C(C)(C)C)cc1` gave an IFI of 2.91%. For `Fc1ccc(-n2cc(-c3ccccc3)[n+]3c2SCC3)cc1`, the IFI was 0%. For `Oc1ccc(-c2cncc(NCc3cccc(O)c3)c2)cc1`, the IFI was 4.71%. For `COc1ccc(N(CC(=O)Nc2cc(OC)ccc2OC)S(=O)(=O)c2ccc(C)cc2)cc1`, the IFI was 0%. Work on `CN(C)CCNC(=O)c1ccc(-c2cccc3c2sc2ccccc23)nc1N1CCN(CCO)CC1` yielded an IFI of 11.3%. With `N#Cc1c(NC(=O)COc2ccc(F)cc2F)sc2c1CCC2` the IFI was 0%. Work on `CC(=O)Nc1ccccc1-c1nnn(CC(N)=O)n1` yielded an IFI of 0%. Compound `CCOC(=O)c1[nH]c(CSC#N)c(C(C)=O)c1C` has an IFI of 0%. Compound `O=C(Nc1ccc(-n2cccn2)cc1)C1CCN(Cc2nc3c(s2)CCCC3)CC1` has an IFI of 0%. `COC(=O)C1=CNC=C(C(=O)OC)C1c1cc(Br)ccc1OC` gave an IFI of 6.25%. In the case of `CCOC(=O)C1=C(C)NC2=C(C(=O)CC(C)(C)C2)C1c1cc(I)sc1SC` (stereo not given), the IFI is reported as 1.46%. In the case of `Cc1ccc(-c2cc(-c3cc(Cl)ccc3O)on2)cc1`, the IFI is reported as 0%. With `O=C(CCl)Nc1ccc(N2CCCCC2)cc1` the IFI was 7.69%. `COc1ccc(CNCc2cc3c(-c4ccc(C)cc4)nn(-c4ccccc4)c3[nH]c2=O)cc1` gave an IFI of 8.11%. In the case of `CCc1nc2nc(C)cc(Nc3ccc4c(c3)OCCO4)n2n1`, the IFI is reported as 0%. In the case of `C=CC[n+]1cccc2c3ccccc3ccc21`, the IFI is reported as 11.1%. Work on `N#Cc1cc2[nH]c3ccccc3c2n(-c2ccc([N+](=O)[O-])cc2)c1=N` yielded an IFI of 1.59%. With `Cc1ccc(C)c(NC(=O)c2c(-c3c(Cl)cccc3Cl)noc2C)c1` the IFI was 4.6%. Work on `CN1C=C(c2ccc3ccccc3n2)C(c2c[nH]c3ccccc23)c2ccccc21` (stereo not given) yielded an IFI of 6.57%. In the case of `CN1CCN=C1c1ccc(NC(=O)Nc2ccc(NC(=O)Nc3ccc(C4=NCCN4C)cc3)cc2)cc1`, the IFI is reported as 0.893%. `O=C(C1=C(O)C(=O)N(CCCn2ccnc2)C1c1ccccc1[N+](=O)[O-])c1ccccc1` (stereo not given) showed an IFI of 0%. `O=C1C2C(C(=O)N1c1ccc(Cl)c(C(F)(F)F)c1)C1(c3ccccc3)C(=O)C2(c2ccccc2)C(c2ccccc2)=C1c1ccccc1` (stereo not given) showed an IFI of 0%. In the case of `Cc1ccc(Nc2nc(NN=Cc3ccc(-c4ccc([N+](=O)[O-])cc4)o3)nc(N3CCOCC3)n2)cc1Cl`, the IFI is reported as 4.71%. In the case of `CCCCC(=O)N(CCCC(C)Nc1cc(OC)cc2cccnc12)Cc1ccccc1OC` (stereo not given), the IFI is reported as 5.26%. In the case of `CC(=O)N1CC(=NNC(=O)C(C)Nc2c(C)cccc2C)c2ccccc21` (stereo not given), the IFI is reported as 0%. `Cc1ccc(O)c(Nc2c3c(c(C#N)c4nc5ccccc5n24)CCC3)c1` showed an IFI of 14.3%. Compound `C#CC(C)(C)NC(=O)c1ccc(-c2ccc(CC)cc2)cc1` has an IFI of 3.1%. In the case of `N#Cc1nc(-c2ccccc2)c(-c2ccc(-c3nc(C#N)c(C#N)nc3-c3ccccc3)cc2)nc1C#N`, the IFI is reported as 7.14%. Compound `CC1CCN(c2nncc3ccccc23)CC1` has an IFI of 0%. For `CCOc1ccc(Nc2nc(N)c3ccccc3n2)cc1`, the IFI was 20.6%. Compound `Cc1ccc(NC(=O)c2cc3ccccc3oc2=O)nc1` has an IFI of 9.2%. `CCc1c(C#N)c(N)nc2sc(C(=O)c3ccc(Br)cc3)c(N)c12` showed an IFI of 0%. Compound `COc1cc([N+](=O)[O-])ccc1NC(=O)CN1CCN(C(=O)c2ccco2)CC1` has an IFI of 0%. `CCCCN(CCCC)S(=O)(=O)c1ccc(NC(=O)c2ccco2)cc1` gave an IFI of 0%. Work on `Cc1onc(-c2ccccc2)c1C(=O)N1CCC(CNc2c(-c3ccc(F)cc3)nc3ccccn23)CC1` yielded an IFI of 5.56%. Work on `COC(=O)C1=C(C)NC2=C(C(=O)CC(c3ccccc3Cl)C2)C1c1ccc([N+](=O)[O-])cc1` (stereo not given) yielded an IFI of 5.43%. With `CN(C)/C=C1\Oc2ccccc2N=C1Cl` the IFI was 2.63%. For `CCCN1CCC(c2nc(N3CCOCC3)ncc2-c2cc(C)no2)CC1`, the IFI was 0%. Compound `CCC(=O)NCc1nc2ccccc2n1Cc1ccc(C)cc1` has an IFI of 0%. Work on `CCCC[n+]1c(C=C2C=Cc3ccccc3N2CC)sc2ccccc21` yielded an IFI of 11.1%. For `CC1CC(C)(C)NC(=S)N1CCC(=O)NCCc1ccccc1` (stereo not given), the IFI was 0%. `O=C(CCc1ccccc1)NCCCCNc1ccnc2cc(Cl)ccc12` gave an IFI of 3.77%. `CCCCOc1cccc(NC(=O)CSC2=C(C#N)C(c3ccccc3)C(C(=O)Nc3ccccc3)=C(C)N2)c1` (stereo not given) gave an IFI of 0%. Compound `CC(C)c1cccc(C(C)C)c1NC(=O)N(Cc1ccccc1)C(C)c1nc2ccccc2c(=O)n1-c1ccccc1` (stereo not given) has an IFI of 1.87%. With `CCC(=O)NC(c1ccccc1Cl)c1cc(Cl)c2cccnc2c1O` (stereo not given) the IFI was 15.4%. With `O=C1C(=Nc2cccc(C(F)(F)F)c2)c2ccccc2N1CN1CCc2ccccc2C1` the IFI was 0%. Compound `O=C1NC(=Nc2ccccc2)S/C1=C/c1ccc(F)c(Br)c1` has an IFI of 2.3%. In the case of `Fc1cccc(Nc2nc(NCC3CCCO3)c3ccccc3n2)c1` (stereo not given), the IFI is reported as 4.54%. In the case of `CC1C(Br)C(=O)C(Br)C(C)C12CCCC2` (stereo not given), the IFI is reported as 0%. In the case of `O=C(c1ccc2ccccc2c1)N1CCc2ccccc21`, the IFI is reported as 0%. `Oc1cc(-c2ccccc2)nc2ccccc12` gave an IFI of 7.09%. In the case of `Cc1noc(C)c1S(=O)(=O)N(Cc1ccccc1)CC(O)CN1CCC(NC(=O)c2ccccc2Cl)C1` (stereo not given), the IFI is reported as 1.94%. `CC(C)c1ccc(-c2cncc(N[C@@H](C)c3ccccc3)n2)cc1` showed an IFI of 0%. Work on `COc1ccc(CN(C)C(C)C)cc1OC1CCN(C(=O)C2CCC2)CC1` yielded an IFI of 0.98%. `Oc1ccc(-c2ccc3c(c2)OCO3)cc1CNCC1CC2C=CC1C21CC1` (stereo not given) gave an IFI of 1.71%. Compound `CC(C)(C)c1ccc(Oc2ccc(N3C(=O)C4CC=CCC4C3=O)cc2)cc1` (stereo not given) has an IFI of 0%. With `COc1ccc(C2=C(c3ccc(OC)cc3)C3(c4ccccc4)C(=O)C2(c2ccccc2)C2C(=O)N(c4ccccc4)C(=O)C23)cc1` (stereo not given) the IFI was 0%. In the case of `CC(=O)c1ccc(NC(=O)CN(C)S(=O)(=O)c2ccc3[nH]c4c(c3c2)CCCC4)cc1`, the IFI is reported as 0%. For `COc1ccc(-c2cn3c([n+]2-c2ccccc2)SCC3)cc1`, the IFI was 2.73%. Work on `CCN(CC)CCNC(=O)c1cc(-c2cc3ccccc3s2)cc(-n2cnnn2)c1` yielded an IFI of 4.24%. `Cc1ccc(C[n+]2cc(-c3ccc(F)cc3)n3c2CCC3)cc1` showed an IFI of 2.38%. In the case of `CC[n+]1c(/C=C2\Sc3cc(C)ccc3N2CCO)ccc2ccccc21`, the IFI is reported as 15.4%. Compound `COC(C(=NO)c1ccc(Cl)cc1)c1ccccc1` (stereo not given) has an IFI of 0%. `COc1cc(C=NNC(=O)c2cccc3ccccc23)ccc1OCC(N)=O` gave an IFI of 0%. `CCCCCN(CCCCC)C(O)c1cc2c(c3ccccc13)CCCC2` (stereo not given) gave an IFI of 1.82%. `Oc1ccc(-c2nc3ccccc3s2)cc1CN1CCCCC1` showed an IFI of 12%. Compound `CCCN(CCC)CCNC(=O)c1cc2c(-c3ccc(Cl)cc3)nn(C)c2s1` has an IFI of 0%. `N#Cc1cc(C#N)c(N2CCN(c3cccc(Cl)n3)CC2)nc1N` gave an IFI of 6.58%. `CCc1ccccc1NC(C)=O` showed an IFI of 1.04%. `CC(C)(C)c1csc(NC(=O)c2ccc(S(=O)(=O)N3CCCCC3)cc2)n1` gave an IFI of 3.37%. `CCN1c2ccc([N+](=O)[O-])cc2N(CC)C1(C)c1ccccc1` (stereo not given) gave an IFI of 0%. `CCc1ccc(C(=O)N(CCc2ccccc2)C(CC)c2nc3ccccc3c(=O)n2-c2ccccc2OC)cc1` (stereo not given) gave an IFI of 3.85%.
